According to the BET-seq Pho4 binding data (Le et al. 2018):
The other results are listed elsewhere or left out. The energies were worked out here from pooled read counts, against the library average; single values are noisy.

Each sequence was assayed against T1, Pho4 (S. cerevisiae) (UniProt P07270) (assay: relative binding free energy (BET-seq); higher = weaker binding). Details: reference: library average.
T1 sequence: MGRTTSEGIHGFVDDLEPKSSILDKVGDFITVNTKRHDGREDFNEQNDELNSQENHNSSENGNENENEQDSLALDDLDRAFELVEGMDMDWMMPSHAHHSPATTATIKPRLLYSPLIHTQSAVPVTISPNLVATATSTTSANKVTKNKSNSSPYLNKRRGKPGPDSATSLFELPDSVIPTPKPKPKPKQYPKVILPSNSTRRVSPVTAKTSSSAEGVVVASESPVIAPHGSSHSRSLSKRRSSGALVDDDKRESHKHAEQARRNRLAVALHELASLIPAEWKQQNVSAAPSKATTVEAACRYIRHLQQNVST

| Sequence | relative binding free energy [kcal/mol] |
| --- | --- |
| ATGTGCACGTGCTCTG | -0.07 |
| TTAGCCACGTGGTGTT | -0.05 |
| GTAGGCACGTGCGTGA | -0.21 |
| ACGAGCACGTGGGGCG | -0.3 |
| ATTAGCACGTGAGGGG | 0.16 |
| GAAGTCACGTGGGTAG | 0.12 |
| TGCATCACGTGTGGCT | 0.17 |
| AAGTACACGTGTCGTT | 0.16 |
| AAGGGCACGTGGGGGC | -0.16 |
| CTTGACACGTGGTGAG | 0.06 |
| AGGGTCACGTGTAACG | 0.1 |
| AGAGACACGTGAGGGT | 0.11 |
| AGTGCCACGTGGGGTC | -0.41 |
| GTTAACACGTGATGGA | 0.08 |
| TGTACCACGTGTGAAT | 0.19 |
| AGGCTCACGTGGATGA | 0.34 |
| GGCAACACGTGGTGTG | 0.02 |
| TCGTACACGTGCGGGT | 0.03 |
| GAGTGCACGTGTGTAT | -0.03 |
| TATACCACGTGTTTGT | -0.02 |
| GGGAACACGTGGTTAG | 0.07 |
| GGGGTCACGTGCGTAT | -0.05 |
| GGTACCACGTGGTTTT | 0.13 |
| TGTTGCACGTGGCCGG | -0.18 |
| GGTGTCACGTGGCGTC | -0.15 |

| Sequence | relative binding free energy [kcal/mol] |
| --- | --- |
| AGTAGCACGTGCGTAT | -0.17 |
| AAAGGCACGTGAAGAT | 0.18 |
| TATTGCACGTGTCTGT | 0.02 |
| TCGGGCACGTGATGGT | 0.12 |
| CGGTTCACGTGTAATT | 0.26 |
| TTCGCCACGTGGGTTT | -0.08 |
| TGAGGCACGTGATTGT | -0.04 |
| ATCGTCACGTGTGGTT | 0.06 |
| CAGTGCACGTGGGTTG | -0.12 |
| GGGATCACGTGATTAA | 0.41 |
| ATAGTCACGTGGATAT | 0.08 |
| GCGGGCACGTGCTGTG | -0.08 |
| GTATTCACGTGCATTT | 0.37 |
| TGCTACACGTGTTAAG | 0.25 |
| TGCTGCACGTGTAAGT | 0.15 |
| GTTGACACGTGGTAGG | 0 |
| TAAAACACGTGTGGTT | 0.2 |
| TATGTCACGTGGGGCT | -0.02 |
| GTATTCACGTGCTTAT | 0.23 |
| CGTTGCACGTGATTGT | 0.04 |
| CTATGCACGTGATTGT | 0 |
| TTAAACACGTGTTTTT | 0.03 |
| AGTGGCACGTGGTGGG | -0.08 |
| ATTCTCACGTGTTCGT | 0.18 |
| AAAGGCACGTGTAAGT | 0 |

| Sequence | relative binding free energy [kcal/mol] |
| --- | --- |
| TATGACACGTGAAAGT | 0.32 |
| CGTAGCACGTGTGGGC | -0.09 |
| ATTGACACGTGTGGTG | -0.03 |
| CGGGGCACGTGGCGTG | -0.17 |
| GGGGTCACGTGGTGCT | 0.18 |
| TGTTGCACGTGTGGAC | -0.02 |
| GGTTACACGTGTGAGA | 0.27 |
| AAGTGCACGTGACGTG | 0.18 |
| TCTATCACGTGGGAAG | 0.15 |
| ATTGGCACGTGTAGCG | -0.03 |
| AGTTCCACGTGGGGGC | -0.07 |
| AGTCGCACGTGGATGG | -0.04 |
| TGGTCCACGTGCATGT | 0.03 |
| GGAGGCACGTGCATGG | -0.15 |
| TAGGACACGTGTTGTA | 0.07 |
| TATAGCACGTGGCTTG | -0.21 |
| TTTGACACGTGGCTAT | -0.1 |
| GATGGCACGTGATCTG | 0.09 |
| GATTTCACGTGTTTAA | 0.2 |
| GGTTTCACGTGACTTA | 0.38 |
| TGCGTCACGTGCTGTT | -0.04 |
| TTTCGCACGTGGTTTC | -0.14 |
| ATAAGCACGTGAGGGG | 0.21 |
